Results as given in article PMC4336329 (PLoS ONE, 2015).
About 2,200 (0.71%) of roughly 310,000 compounds showed an effect of 50% or more. Effects have a minus sign here. Some of the results follow.

target: human ether-à-go-go-related gene (hERG) potassium channel (human, UniProt Q12809); assay: primary screen, population patch clamp on CHO cells stably expressing hERG
Sequence (Q12809 whole entry, looked up): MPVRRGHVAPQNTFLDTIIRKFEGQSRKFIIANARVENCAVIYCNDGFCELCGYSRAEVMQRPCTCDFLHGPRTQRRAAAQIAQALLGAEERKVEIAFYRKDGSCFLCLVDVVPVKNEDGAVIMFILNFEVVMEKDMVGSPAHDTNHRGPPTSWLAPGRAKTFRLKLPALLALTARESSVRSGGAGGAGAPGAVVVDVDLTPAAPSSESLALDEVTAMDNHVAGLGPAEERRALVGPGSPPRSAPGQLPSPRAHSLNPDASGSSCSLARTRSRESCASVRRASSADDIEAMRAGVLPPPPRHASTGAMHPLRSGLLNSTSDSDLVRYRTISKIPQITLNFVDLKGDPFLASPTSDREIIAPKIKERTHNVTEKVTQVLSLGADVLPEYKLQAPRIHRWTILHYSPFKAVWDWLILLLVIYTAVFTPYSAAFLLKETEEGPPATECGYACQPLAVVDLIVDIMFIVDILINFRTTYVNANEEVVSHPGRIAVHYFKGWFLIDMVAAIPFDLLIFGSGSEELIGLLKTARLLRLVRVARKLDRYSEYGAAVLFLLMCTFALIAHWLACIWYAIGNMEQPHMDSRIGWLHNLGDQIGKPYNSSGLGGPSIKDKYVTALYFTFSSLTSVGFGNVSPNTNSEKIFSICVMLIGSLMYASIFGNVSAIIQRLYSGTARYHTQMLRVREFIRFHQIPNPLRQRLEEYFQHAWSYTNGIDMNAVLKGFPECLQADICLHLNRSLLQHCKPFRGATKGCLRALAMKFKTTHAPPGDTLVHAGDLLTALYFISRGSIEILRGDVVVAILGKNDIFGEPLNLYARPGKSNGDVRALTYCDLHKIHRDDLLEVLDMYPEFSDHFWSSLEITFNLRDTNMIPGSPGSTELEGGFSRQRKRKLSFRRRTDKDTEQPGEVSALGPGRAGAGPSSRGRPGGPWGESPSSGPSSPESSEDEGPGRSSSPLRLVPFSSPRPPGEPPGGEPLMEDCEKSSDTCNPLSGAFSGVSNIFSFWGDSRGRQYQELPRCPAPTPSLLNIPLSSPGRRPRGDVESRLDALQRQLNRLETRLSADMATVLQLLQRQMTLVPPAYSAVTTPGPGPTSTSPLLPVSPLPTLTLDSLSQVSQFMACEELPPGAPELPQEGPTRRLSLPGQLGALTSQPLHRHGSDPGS

Structure (SMILES)	hERG current change (%, negative = inhibition) at 1uM
Cc1ccc(-c2cc3ccccc3nc2N)cc1	11.1%
CSC(=Nc1ccccc1)c1c(O)n(C)c(=O)n(C)c1=O	7.67%
Cc1ccc(OCC(=O)Nc2ccc(N3CCN(C(=O)c4ccco4)CC3)cc2)cc1C	-0.75%
COc1ccccc1NC(=O)C(C)OC(=O)CN1C(=O)C2CC=CCC2C1=O (stereo not shown)	-21.8%
O=C(OCC(=O)N1CCN(C(=O)c2ccco2)CC1)c1cccc(O)c1	6.74%
COc1ccc(C2=NS(=O)(=O)N(C)C(C(=O)Nc3ccc4c(c3)OCO4)=C2)cc1	7.43%
COc1ccc(C2(c3ccc(OC(C)=O)cc3OC(C)=O)CC(c3ccccc3)NC(=S)N2)cc1 (stereo not shown)	-9.81%
N#Cc1cccc(NC(=O)Cn2cnc(S(=O)(=O)N3CCc4ccccc43)c2)c1	5.83%
COc1ccc(C2CC(=O)n3c(nc4ccccc43)S2)cc1OC (stereo not shown)	12.9%
Cc1occc1C(=O)Nc1c(F)c(F)c(F)c(F)c1F	-1.15%
CCCc1[nH]c2ccc(C(=O)OC)cc2c1CCC	13%
CC(C)C(=O)N(c1ccc2oc(=O)sc2c1)S(=O)(=O)c1cccs1	8.03%
CCCn1c(SCC#N)nc2c(c1=O)C1(CCCC1)Cc1ccccc1-2	10.4%
CCOc1c(Cl)cc(CNC(C)C(O)c2ccccc2)cc1OC.Cl (stereo not shown)	4.13%
Cc1cc(C)c(C)c(OCCCN(C)C)c1.O=C(O)C(=O)O	6.99%
COc1cc2c(-c3ccc4cc[nH]c4c3)c(-c3ccsc3)oc(=O)c2cc1OC	9.06%
COc1ccc(C(NCC(=O)NC(C)c2ccc(Cl)cc2)c2ccccc2)cc1 (stereo not shown)	12.3%
CCOc1cc(/C=C2/C(=N)N3C(=NC2=O)SN=C3S(=O)(=O)CC)ccc1OC(=O)c1ccco1	11.1%
CCNC(=S)N1CCN(CCN=CC2=C(O)CC(C)(C)CC2=O)CC1	-9.89%
Nn1c(SCC(=O)NC2CCCc3ccccc32)nnc1-c1cccs1 (stereo not shown)	7.63%
CCOc1ccccc1NC(=O)C1CCCN1C(=O)c1cccs1 (stereo not shown)	9.01%
Cc1ccc(S(=O)(=O)/N=C2/NC(=O)/C(=C\c3ccco3)S2)cc1	4.02%
N=C1c2ccccc2CN1c1ncccn1	22.5%
CCOc1ccc(C(=O)Nc2ncn[nH]2)cc1	15.7%
COc1cccc(CC2(CO)CCN(Cc3cccn3-c3cccnc3)CC2)c1	-6.04%
